# Source: FireProtDB (doi:10.1016/j.bbalip.2010.10.003)
# Details: Homo sapiens; pH 7.4; 25 °C; GdnHCl; Fluorescence; Phosphate buffer; transition: 2
substance,measurement,value
Apolipoprotein A-I wild type (no sequence given),denaturant m value,3 kcal/mol/M and 3.2 kcal/mol/M
same,denaturant midpoint (higher = more stable),1.05 M
same,unfolding free energy,3.1 kcal/mol and 3.4 kcal/mol

# Where “and” joins values, the source holds several entries; their conditions need not be identical. Identical values can stand only once.
